#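 48-hour exposure; five concentrations; linearly interpolated endpoints. At the GI50, growth is halved.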 Activity calls are given as the source filed them. Cut-off read from the data, not from the text of the source: active = GI50 up to about 1.1 µM and inactive = higher.
# System: NCI-H322M
# Test: NCI tumour cell line growth inhibition, 48 h
row,SMILES,GI50
1,Nc1nc(N)c2cc(Sc3cccc(C(F)(F)F)c3)ccc2n1 [WR-159412],inactive: 3.13 µM
2,[C-]#[N+]C(=C\c1ccc(O)cc1)/C(=C/c1ccc(O)cc1)[N+]#[C-] [XANTOCILLIN],inactive: 2.18 µM
3,Cc1cn([C@H]2C[C@H](N=[N+]=[N-])[C@@H](CO)O2)c(=O)[nH]c1=O [ZIDOVUDINE],inactive: 99.8 µM
4,CCn1c(-c2ccc(OC(C)=O)cc2)c(C)c2cc(OC(C)=O)ccc21 [ZINDOXIFENE],inactive: 28.9 µM

# From ChEMBL document CHEMBL1201862, “PubChem BioAssay data set” (2004)
